Experimental data published in the supplement of paper PMC12217912.
The other results are listed elsewhere or left out. The full chains were built here from the parent and the listed change. Inactive controls read about 0.05.

B1: TEV protease; numbered along this chain (parent)
chain: MGESLFKGPRDYNPISSSICHLTNESDGHTTSLYGIGFGPFIITNKHLFRRNNGTLVVQSLHGVFKVKDTTTLQQHLVDGRDMIIIRMPKDFPPFPQKLKFREPQREERICLVTTNFQTKSMSSMVSDTSCTFPSGDGIFWKHWIQTKDGQCGSPLVSTRDGFIVGIHSASNFTNTNNYFTSVPKNFMELLTNQEAQQWVSGWRLNADSVLWGGHKVFMVKPEEPFQPVKEATQL

Variants of: B1
Assay: raw area under fraction-flipped curve 0-4 h after induction (AUC4h, not background-subtracted), DNA-recorder readout of cleavage of the substrate (dimensionless); higher = more cleavage of the substrate by the protease variant
Details: temperature: 34 °C; time window: 0-4 h after rhamnose induction
Protocol: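 In vivo DNA recorder in E. coli TOP10(DE3) ΔrhaA at 34 °C. Each TEVp single-site mutant (parent TEVp 0) is paired with a single-site variant of the 7-mer TEVs (canonical ENLYFQ|S). The substrate sits between flexible linkers in a Bxb1-sfGFP-TEVs-SsrA fusion, so cleavage stabilises Bxb1 and speeds flipping of a recombination array, read by NGS. The value is the raw area under the fraction-flipped curve over 0-4 h after rhamnose induction (AUC4h), with ≥20 reads per time point. It is not background-subtracted; inactive controls average about 0.047.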
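Also: Bxb1 expression induced with 0.2% (w/v) L-rhamnose at OD600 near 0.5, cultures sampled hourly, flipped fraction per protease–substrate barcode pair counted by paired-end Illumina sequencing.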

Variant | area with substrate ENLDFQS | area with substrate ENLEFQS | area with substrate ENLFFQS | area with substrate ENLHFQS | area with substrate ENLMFQS | area with substrate ENLNFQS | area with substrate ENLPFQS | area with substrate ENLQFQS | area with substrate ENLRFQS | area with substrate ENLSFQS
E103I | 0.0575 | 0.059 | 0.0695 | 0.0769 | 0.0796 | 0.0629 | 0.0539 | 0.0766 | 0.0905 | 0.0606
E108G | 0.0707 |  |  |  |  |  |  | 0.112 |  | 
R109T | 0.0544 | 0.0626 | 0.0871 | 0.0714 |  | 0.0574 |  | 0.0653 | 0.07 | 0.0578
R109Y | 0.0695 |  | 0.0846 |  |  | 0.0603 | 0.0533 |  |  | 0.0433
V113W | 0.057 |  | 0.0657 | 0.0893 |  |  |  |  |  | 0.0623
V113Y | 0.064 | 0.0619 | 0.0857 | 0.0713 |  | 0.0754 | 0.0061 |  | 0.0659 | 0.0629
Q118C | 0.063 |  |  |  |  |  | 0.0282 | 0.07 |  | 0.0668
Q118W | 0.0706 | 0.0698 | 0.0793 |  |  | 0.0606 | 0.0667 | 0.0511 | 0.0764 | 
T119A | 0.0632 |  | 0.0882 | 0.0679 |  |  |  |  | 0.0757 | 0.068
T119G | 0.0788 | 0.0454 |  | 0.0648 |  | 0.0489 |  |  |  | 
S124Y | 0.0483 | 0.0698 | 0.0709 | 0.0585 |  | 0.0647 |  |  |  | 0.0844
M125W | 0.0774 | 0.0522 | 0.0797 | 0.0616 |  | 0.0556 |  |  |  | 
T129H | 0.0668 |  | 0.0561 | 0.0569 |  |  |  |  |  | 
C131E | 0.059 |  |  |  |  |  |  |  |  | 
C131K | 0.061 |  | 0.0739 | 0.0784 |  | 0.0694 | 0.0405 |  | 0.0885 | 
S135H | 0.0712 |  | 0.0579 | 0.0801 |  | 0.0645 |  |  |  | 
F140S | 0.051 |  |  | 0.0532 | 0.0618 |  |  |  |  | 
W141N | 0.0566 | 0.0439 | 0.0568 | 0.0551 |  | 0.0551 | 0.0578 |  | 0.0567 | 
I145N | 0.0578 |  | 0.116 | 0.066 |  |  | 0.0392 |  |  | 
T147V | 0.0622 | 0.0628 | 0.073 |  | 0.0646 |  |  | 0.06 |  | 0.0737
D149I | 0.0398 | 0.0595 | 0.08 |  | 0.077 | 0.0701 |  | 0.0769 |  | 0.0785
G153F | 0.0684 |  | 0.0419 | 0.0515 |  |  |  |  |  | 

Same assay, conditions: temperature: 34 °C; time window: 0-4 h after rhamnose induction

Variant | area with substrate ENLTFQS | area with substrate ENLGFQS | area with substrate ENLKFQS | area with substrate ENLLFQS | area with substrate ENLWFQS | area with substrate ENLVFQS | area with substrate ENLIFQS
E108G | 0.0671 |  |  |  |  |  | 
R109T |  | 0.0689 | 0.0765 | 0.0718 | 0.0724 |  | 
R109Y |  | 0.066 | 0.0933 | 0.0698 | 0.0949 |  | 
V113W |  |  | 0.0903 | 0.0597 | 0.0615 | 0.0735 | 
V113Y | 0.0912 | 0.0428 | 0.0774 |  | 0.0738 |  | 
Q118C |  |  |  | 0.0581 |  |  | 
Q118W |  |  | 0.0709 |  |  |  | 0.0925
T119A |  |  | 0.0753 | 0.0503 | 0.0669 |  | 0.0899
T119G |  |  |  |  |  |  | 0.0858
S124Y |  |  | 0.0697 | 0.0747 |  | 0.0885 | 
M125W |  |  |  |  |  |  | 0.106
T129H |  |  | 0.0517 |  |  |  | 
C131E |  |  |  | 0.0555 |  |  | 
S135H |  |  | 0.0649 |  | 0.108 |  | 
F140S |  |  | 0.0634 |  |  |  | 0.0586
W141N |  |  | 0.0647 | 0.063 |  |  | 
I145N | 0.0579 |  |  |  | 0.0595 |  | 
T147V |  |  | 0.0571 |  |  |  | 0.065
D149I |  |  |  | 0.0817 | 0.046 |  | 0.0547
G153F |  |  | 0.0641 |  |  |  | 
